Values joined by “and” are separate entries in the source; they are usually repeats but may differ in a detail not shown here. Equal entries are not always repeated. The shares of active, inactive and inconclusive entries below differ from those in the screen. For some assays here: Potencies beside an inconclusive call are fits to weak or partial responses and may not hold up. Active and inactive are the calls of the source. Calls follow the shape of the dose curve; as a rule, active = well fitted curve in the direction sought with a large enough effect in the repeat runs; inconclusive = weak or mixed curves; inactive = no such curve, though single readings can be large; an effect the other way counts as inactive or inconclusive.
What was measured:
[1] = Human pregnane X receptor (PXR) small molecule agonists, qHTS cell viability counter screen (AID 1346977); also: nearly all actives have a fitted effect of over 50% in size; also: potency is read from the fitted curve at half-maximal effect
How it was run: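 Fluorescence read-out (CellTiter-Fluor) of viability in PXR-Luc HepG2 cells, multiplexed with the luciferase agonist read. Compounds in DMSO added after 5hr plating; 24hr total exposure at 37C, 5% CO2.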

[2] = Caspase-3/7 induction in CHO-K1 cells by small molecules, qHTS cell viability counter screen (AID 1346979); also: nearly all actives have a fitted effect of over 35% in size; also: potency is read from the fitted curve at half-maximal effect
How it was run: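 CHO-K1 wt, 1,500 cells/well; 5hr pre-incubation 37C/5% CO2; compound pin transfer (DMSO); 16hr exposure; CellTiter-Fluor added, 1hr, fluorescence read.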

[3] = target: Nuclear receptor subfamily 1 group I member 2 (Homo sapiens) (UniProt O75469); test: Human pregnane X receptor (PXR) activation by small molecules, qHTS assay (AID 1346985); also: nearly all actives have a fitted effect of over 40% in size
Sequence of UniProt O75469 (O75469 whole entry, looked up): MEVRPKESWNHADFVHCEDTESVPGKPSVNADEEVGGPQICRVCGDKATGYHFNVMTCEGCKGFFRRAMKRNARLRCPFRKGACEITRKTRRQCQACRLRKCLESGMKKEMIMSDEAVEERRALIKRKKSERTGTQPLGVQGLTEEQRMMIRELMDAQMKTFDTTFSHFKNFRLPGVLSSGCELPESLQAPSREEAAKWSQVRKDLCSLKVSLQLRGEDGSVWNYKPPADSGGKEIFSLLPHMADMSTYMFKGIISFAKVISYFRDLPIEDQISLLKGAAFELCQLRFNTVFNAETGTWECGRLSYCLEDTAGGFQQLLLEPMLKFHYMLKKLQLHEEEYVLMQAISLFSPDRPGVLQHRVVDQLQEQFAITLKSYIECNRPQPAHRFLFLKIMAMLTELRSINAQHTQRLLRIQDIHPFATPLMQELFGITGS
How it was run: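 DPX-2 cells (HepG2 co-transfected with a PXR response element and a CYP3A4-promoter luciferase construct) were seeded at 2,000 per well, rested 5 hr at 37C, then exposed to DMSO-dissolved compounds for 24 hr. Activation was read as luciferase luminescence.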

[4] = target: Cytochrome P450 2D6 (Homo sapiens) (UniProt P10635); test: Cytochrome P450 Family 2 Subfamily D Member 6 (CYP2D6) small molecule antagonists: luciferase reporter qHTS assay (AID 1671196); also: nearly all actives have a fitted effect of over 50% in size; also: potency is read from the fitted curve at half-maximal effect
Sequence of UniProt P10635 (P10635 whole entry, looked up): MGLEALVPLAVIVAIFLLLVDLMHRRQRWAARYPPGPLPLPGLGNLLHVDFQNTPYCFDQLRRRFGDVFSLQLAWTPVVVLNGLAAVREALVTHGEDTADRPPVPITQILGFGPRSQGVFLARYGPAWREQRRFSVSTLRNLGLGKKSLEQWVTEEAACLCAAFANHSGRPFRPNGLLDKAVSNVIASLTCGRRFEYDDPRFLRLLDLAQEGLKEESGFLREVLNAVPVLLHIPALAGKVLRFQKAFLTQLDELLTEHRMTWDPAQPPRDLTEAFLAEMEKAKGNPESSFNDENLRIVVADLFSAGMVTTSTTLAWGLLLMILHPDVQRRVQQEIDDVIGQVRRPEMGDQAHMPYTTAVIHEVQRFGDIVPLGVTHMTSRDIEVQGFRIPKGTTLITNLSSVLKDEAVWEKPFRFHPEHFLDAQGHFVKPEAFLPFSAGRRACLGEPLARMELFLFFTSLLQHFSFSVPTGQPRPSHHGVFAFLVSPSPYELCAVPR
How it was run: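 Chemicals tested for interference with CYP2D6 activity; proluciferin substrate, NADPH regeneration, 1 h at room temperature, luminescent detection.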

[5] = Caspase-3/7 induction in HepG2 cells by small molecules, qHTS cell viability counter screen (AID 1346981); also: nearly all actives have a fitted effect of over 30% in size; also: potency is read from the fitted curve at half-maximal effect
How it was run: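 Treatment of HepG2 cells with DMSO-delivered compounds ran 16 hr at 37 C following a 5-hr pre-incubation of 2,000 cells/well. CellTiter-Fluor fluorescence, read after 1 hr, served as the viability measure in a qHTS format.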

[6] = target: Cytochrome P450 2C19 (Homo sapiens) (UniProt P33261); test: Cytochrome P450 Family 2 Subfamily C Member 19 (CYP2C19) small molecule antagonists: luciferase reporter qHTS assay (AID 1671197); also: potency is read from the fitted curve at half-maximal effect; nearly all actives have a fitted effect of over 65% in size
Sequence of UniProt P33261 (P33261 whole entry, looked up): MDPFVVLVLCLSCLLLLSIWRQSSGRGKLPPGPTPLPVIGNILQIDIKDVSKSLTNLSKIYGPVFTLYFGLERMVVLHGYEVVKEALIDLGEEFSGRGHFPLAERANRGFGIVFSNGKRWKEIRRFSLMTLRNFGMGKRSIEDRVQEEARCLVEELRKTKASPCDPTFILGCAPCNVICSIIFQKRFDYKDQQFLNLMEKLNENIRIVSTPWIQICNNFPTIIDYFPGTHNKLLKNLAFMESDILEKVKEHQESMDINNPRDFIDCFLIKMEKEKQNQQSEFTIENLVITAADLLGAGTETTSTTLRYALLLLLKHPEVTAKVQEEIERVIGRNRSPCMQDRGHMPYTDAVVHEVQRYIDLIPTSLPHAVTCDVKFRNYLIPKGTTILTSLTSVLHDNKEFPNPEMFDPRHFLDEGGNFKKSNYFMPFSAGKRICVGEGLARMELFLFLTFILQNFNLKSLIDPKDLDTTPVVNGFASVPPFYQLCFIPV
How it was run: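 First, compounds are pinned into enzyme-substrate mix and held 10 min at room temperature. Second, NADPH regeneration solution is added and plates incubate 1 h at 37C. Third, detection reagent is added and luminescence read after 20 min.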

[7] = target: Cytochrome P450 2C9 (Homo sapiens) (UniProt P11712); test: Cytochrome P450 Family 2 Subfamily C Member 9 (CYP2C9) small molecule antagonists: luciferase reporter qHTS assay (AID 1671198); also: nearly all actives have a fitted effect of over 50% in size; also: potency is read from the fitted curve at half-maximal effect
Sequence of UniProt P11712 (P11712 whole entry, looked up): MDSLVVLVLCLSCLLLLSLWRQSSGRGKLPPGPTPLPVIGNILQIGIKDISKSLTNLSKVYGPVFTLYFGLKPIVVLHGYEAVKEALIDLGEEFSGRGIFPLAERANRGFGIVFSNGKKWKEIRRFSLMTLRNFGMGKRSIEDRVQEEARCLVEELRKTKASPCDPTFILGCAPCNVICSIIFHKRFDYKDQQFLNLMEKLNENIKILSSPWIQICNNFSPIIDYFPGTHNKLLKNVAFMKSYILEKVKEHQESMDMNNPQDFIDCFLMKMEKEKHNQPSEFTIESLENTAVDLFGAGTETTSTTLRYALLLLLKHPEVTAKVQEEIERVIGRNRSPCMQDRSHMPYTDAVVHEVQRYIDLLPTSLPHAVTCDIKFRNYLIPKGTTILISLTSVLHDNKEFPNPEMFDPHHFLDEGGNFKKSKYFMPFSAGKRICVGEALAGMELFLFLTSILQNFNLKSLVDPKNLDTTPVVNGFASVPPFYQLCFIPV
How it was run: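 P450-Glo proluciferin substrate with CYP2C9 enzyme; 10 min RT preincubation, then NADPH regeneration 1 h at 37C; luciferin detection reagent 20 min RT, luminescence in relative luminescence units.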

[8] = target: Voltage-gated inwardly rectifying potassium channel KCNH2 (Homo sapiens) (UniProt Q12809); test: Human Ether-a-go-go-Related Gene (hERG) channel small molecule antagonists: fluorescence cell-based qHTS assay (AID 1671200); also: potency is read from the fitted curve at half-maximal effect; nearly all actives have a fitted effect of over 50% in size
Sequence of UniProt Q12809 (Q12809 whole entry, looked up): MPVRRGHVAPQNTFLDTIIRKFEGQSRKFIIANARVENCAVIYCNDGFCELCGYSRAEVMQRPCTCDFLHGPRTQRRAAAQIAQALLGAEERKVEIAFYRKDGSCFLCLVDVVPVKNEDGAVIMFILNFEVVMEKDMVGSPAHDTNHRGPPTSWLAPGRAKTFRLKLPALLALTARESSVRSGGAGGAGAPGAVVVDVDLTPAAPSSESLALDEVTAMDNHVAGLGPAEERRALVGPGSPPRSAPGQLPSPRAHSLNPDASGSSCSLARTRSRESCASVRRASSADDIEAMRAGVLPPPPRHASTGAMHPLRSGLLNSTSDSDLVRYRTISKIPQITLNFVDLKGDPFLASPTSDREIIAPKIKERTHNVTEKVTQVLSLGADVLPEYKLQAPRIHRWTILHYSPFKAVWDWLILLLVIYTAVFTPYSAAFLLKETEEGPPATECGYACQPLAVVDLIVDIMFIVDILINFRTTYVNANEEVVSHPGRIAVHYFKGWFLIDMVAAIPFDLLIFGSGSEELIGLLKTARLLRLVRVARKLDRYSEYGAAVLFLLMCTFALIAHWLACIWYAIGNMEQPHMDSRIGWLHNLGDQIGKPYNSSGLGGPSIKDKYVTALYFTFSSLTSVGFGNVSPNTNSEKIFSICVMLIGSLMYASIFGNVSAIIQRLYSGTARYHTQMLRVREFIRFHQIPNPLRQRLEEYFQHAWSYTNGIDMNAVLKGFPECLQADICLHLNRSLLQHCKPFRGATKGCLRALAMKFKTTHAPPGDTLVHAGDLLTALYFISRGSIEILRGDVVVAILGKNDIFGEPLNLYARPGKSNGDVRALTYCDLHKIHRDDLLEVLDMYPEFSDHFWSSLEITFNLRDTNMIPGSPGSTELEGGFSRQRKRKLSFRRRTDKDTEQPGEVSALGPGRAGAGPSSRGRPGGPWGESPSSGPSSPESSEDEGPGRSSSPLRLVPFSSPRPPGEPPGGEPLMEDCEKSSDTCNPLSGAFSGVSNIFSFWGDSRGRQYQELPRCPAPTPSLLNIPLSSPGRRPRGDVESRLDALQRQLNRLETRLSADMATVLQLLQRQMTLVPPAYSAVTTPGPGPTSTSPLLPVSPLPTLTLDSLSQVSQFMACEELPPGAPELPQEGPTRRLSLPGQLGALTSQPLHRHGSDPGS
How it was run: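 Read-out: thallium influx as a surrogate for potassium, tracked as fluorescence (480 nm ex/540 nm em) every second for 2 min after Stimulus Buffer addition in dye-loaded hERG-U2OS cells.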

[9] = target: Cytochrome P450 3A4 (Homo sapiens) (UniProt P08684); test: Cytochrome P450 Family 3 Subfamily A Member 4 (CYP3A4) small molecule antagonists: luciferase reporter qHTS assay (AID 1671201)
Sequence of UniProt P08684 (P08684 whole entry, looked up): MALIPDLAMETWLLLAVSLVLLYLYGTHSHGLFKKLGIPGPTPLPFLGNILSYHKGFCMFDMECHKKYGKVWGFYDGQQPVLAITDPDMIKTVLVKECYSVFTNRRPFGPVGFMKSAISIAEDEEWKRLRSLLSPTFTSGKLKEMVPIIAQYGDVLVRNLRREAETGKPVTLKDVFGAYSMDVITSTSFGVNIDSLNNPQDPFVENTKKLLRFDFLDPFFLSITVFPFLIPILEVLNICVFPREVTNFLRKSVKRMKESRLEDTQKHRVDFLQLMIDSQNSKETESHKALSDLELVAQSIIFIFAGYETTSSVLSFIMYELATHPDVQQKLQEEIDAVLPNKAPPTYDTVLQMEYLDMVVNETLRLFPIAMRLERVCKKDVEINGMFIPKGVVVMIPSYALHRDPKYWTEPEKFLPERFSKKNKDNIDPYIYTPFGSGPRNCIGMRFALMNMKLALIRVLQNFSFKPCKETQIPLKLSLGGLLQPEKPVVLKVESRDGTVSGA
How it was run: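 Luminescent readout (RLU) proportional to CYP3A4 activity, from luciferin generated off a proluciferin substrate. Enzyme–substrate mix plus compound 10 min at room temp, NADPH regeneration 1 h, detection reagent 20 min.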

[10] = target: Nuclear receptor subfamily 1 group I member 2 (Homo sapiens) (UniProt O75469); test: Human pregnane X receptor (PXR) small molecule agonists, qHTS assay (AID 1346982); also: potency is read from the fitted curve at half-maximal effect; nearly all actives have a fitted effect of over 35% in size
How it was run: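 Stable HepG2 line reporting PXR-mediated CYP3A4 expression via luciferase. Treatment: 24 hr with compounds in DMSO at 37 C. Detection: ONE-Glo luminescence.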

[11] = target: Cytochrome P450 1A2 (Homo sapiens) (UniProt P05177); test: Cytochrome P450 Family 1 Subfamily A Member 2 (CYP1A2) small molecule antagonists: luciferase reporter qHTS assay (AID 1671199); also: nearly all actives have a fitted effect of over 50% in size; also: potency is read from the fitted curve at half-maximal effect
Sequence of UniProt P05177 (P05177 whole entry, looked up): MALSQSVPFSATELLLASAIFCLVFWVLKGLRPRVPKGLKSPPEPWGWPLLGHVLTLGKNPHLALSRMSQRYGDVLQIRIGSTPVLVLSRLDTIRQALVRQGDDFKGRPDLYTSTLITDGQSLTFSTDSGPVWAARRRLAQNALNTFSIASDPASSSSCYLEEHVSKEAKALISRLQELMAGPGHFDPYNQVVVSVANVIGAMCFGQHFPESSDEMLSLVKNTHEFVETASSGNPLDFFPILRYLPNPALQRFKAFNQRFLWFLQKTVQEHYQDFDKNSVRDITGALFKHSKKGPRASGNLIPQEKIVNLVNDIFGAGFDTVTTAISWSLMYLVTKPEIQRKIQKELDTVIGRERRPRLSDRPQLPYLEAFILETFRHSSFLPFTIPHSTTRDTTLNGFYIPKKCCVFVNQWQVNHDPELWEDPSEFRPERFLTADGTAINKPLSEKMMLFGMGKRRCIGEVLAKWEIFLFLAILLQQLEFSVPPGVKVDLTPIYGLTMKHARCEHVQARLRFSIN
How it was run: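 Read-out is luminescence from luciferin detection reagent (20 min) proportional to CYP1A2 activity; compounds in DMSO preincubated 10 min with enzyme and proluciferin substrate, then NADPH regeneration solution, 1 h, room temperature.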

[12] = Caspase-3/7 induction in CHO-K1 cells by small molecules, qHTS assay (AID 1346980); also: potency is read from the fitted curve at half-maximal effect; nearly all actives have a fitted effect of over 15% in size
How it was run: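 Wild-type CHO-K1 cells exposed to compounds for 17hr at 37 C, 5% CO2. Caspase-3/7 activity then measured by Caspase-Glo 3/7 luminescence after 30min at room temperature.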

[13] = target: Nuclear receptor subfamily 1 group I member 2 (Rattus norvegicus) (UniProt Q9R1A7); test: Rat pregnane X receptor (rPXR) activation by small molecules, qHTS assay (AID 1346983); conditions: rPXR luciferase reporter cells, One-Glo luminescence, 24 h; max activation: stronger effect = higher value; also: potency is read from the fitted curve at half-maximal effect; nearly all actives have a fitted effect of over 20% in size
Sequence of UniProt Q9R1A7 (Q9R1A7 whole entry, looked up): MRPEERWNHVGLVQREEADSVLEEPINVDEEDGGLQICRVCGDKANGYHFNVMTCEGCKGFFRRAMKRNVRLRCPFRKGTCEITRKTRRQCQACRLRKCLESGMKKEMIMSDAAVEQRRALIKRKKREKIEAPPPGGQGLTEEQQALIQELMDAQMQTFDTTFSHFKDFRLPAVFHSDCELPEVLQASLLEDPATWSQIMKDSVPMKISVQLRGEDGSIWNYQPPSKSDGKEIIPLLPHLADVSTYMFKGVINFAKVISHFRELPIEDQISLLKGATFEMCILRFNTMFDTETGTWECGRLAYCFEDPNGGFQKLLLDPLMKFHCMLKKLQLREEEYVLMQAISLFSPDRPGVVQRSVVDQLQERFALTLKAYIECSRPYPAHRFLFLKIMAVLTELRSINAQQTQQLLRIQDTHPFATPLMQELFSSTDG
How it was run: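 Cell-based rPXR activation assay: rPXR cells, 2,000 per well, rested 5hr at 37 C, then exposed to compounds in DMSO for 24 hr at 37 C. Luciferase activity read by One-Glo luminescence after 30 min at room temperature.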

[14] = Caspase-3/7 induction in HepG2 cells by small molecules, qHTS assay (AID 1346978); also: nearly all actives have a fitted effect of over 15% in size
How it was run: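 Wild-type HepG2 cells, 2,000/well, settled 5 hr at 37 C and 5% CO2, then compound-treated for 17 hr; caspase-3/7 activity read by luminescent Caspase-Glo 3/7 after 30 min at room temperature.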
Tags tell the direction and shape of the fitted curve.

O=C(/C=C/c1ccc(O)c(O)c1)O[C@@H]1C[C@](O)(C(=O)O)C[C@@H](O)[C@H]1O
Potency [1]: inconclusive: 55.4 µM [cytotoxic]
Potency [2]: inconclusive: 55.4 µM [cytotoxic, partial curve, poor fit]

C=Cc1c(C)c2cc3[nH]c(cc4nc(cc5nc(cc1[nH]2)C(C)=C5CCC(=O)O)C(CCC(=O)O)=C4C)c(C)c3C=C
Potency [1]: active: 15 µM
Potency [2]: active: 21.1 µM
Potency [3]: inactive
Potency [4]: inconclusive: 34.7 µM [inhibitor, partial curve]

c1ccc(CCNc2nc(-c3ccccc3)cs2)cc1
Potency [1]: inactive
Potency [2]: inactive

CCc1cc(C2=C(C(=O)O)N(c3ccccc3C(F)(F)F)S(=O)(=O)c3ccccc32)cc2c1OCO2
Potency [1]: inconclusive: 27 µM [cytotoxic, partial curve]
Potency [2]: active: 30.3 µM

CN(C)C(=O)NC1(c2ccccc2)CCN(CC[C@@]2(c3ccc(F)c(F)c3)CN(C(=O)c3ccccc3)CCO2)CC1
Potency [1]: inconclusive: 25.3 µM [cytotoxic, partial curve]
Potency [2]: inconclusive: 63.7 µM [cytotoxic, single point]
Potency [5]: inconclusive: 40.2 µM [cytotoxic, partial curve]
Potency [6]: inconclusive: 74 µM [inhibitor, single point]
Potency [7]: inconclusive: 58.7 µM [inhibitor, partial curve]
Potency [8]: inconclusive: 20.3 µM [inhibitor, partial curve]
Potency [9]: inconclusive: 0.931 µM [inhibitor, full curve]

O=C(CCC1CCN(Cc2ccccc2)CC1)c1ccc2c(c1)NCCCC2
Potency [1]: inconclusive: 26.6 µM [cytotoxic, partial curve]
Potency [2]: inconclusive: 33.5 µM [cytotoxic, single point]
Potency [10]: inconclusive: 26.6 µM [activator, partial curve]
Potency [11]: inactive
Potency [8]: active: 4.77 µM

COc1ccc(N)c(OC)c1
Potency [1]: inconclusive: 68.6 µM [cytotoxic, single point]
Potency [2]: inconclusive: 68.6 µM [cytotoxic]
Potency [5]: inactive and inconclusive: 68.6 µM [cytotoxic, single point]
Potency [11]: inconclusive: 27.2 µM [inhibitor, partial curve]

c1ccc(-c2ccccc2-c2ccccc2)cc1
Potency [1]: inconclusive: 68.6 µM [cytotoxic, single point]
Potency [2]: inconclusive: 68.6 µM [cytotoxic, single point]
Potency [12]: inconclusive: 68.6 µM [activator]
Potency [11]: active: 3.17 µM
Potency [8]: inconclusive: 49 µM [inhibitor, partial curve, poor fit]

c1ccc(OCc2ccc(CCCN3CCOCC3)cc2)cc1
Potency [1]: inconclusive: 29.8 µM [cytotoxic, partial curve, poor fit]
Potency [2]: inconclusive: 37.6 µM [cytotoxic, partial curve, poor fit]
Potency [13]: inconclusive: 12.6 µM [activator, partial curve]

Cc1ccc(/C(=C\CN2CCCC2)c2ccccn2)cc1
Potency [1]: inconclusive: 45.5 µM [cytotoxic, partial curve] and inconclusive: 29.8 µM [cytotoxic, single point]
Potency [14]: inactive
Potency [2]: inconclusive: 57.3 µM [cytotoxic, single point] and inactive
Potency [5]: inconclusive: 72.1 µM [cytotoxic, partial curve, poor fit]
Potency [7]: inactive
Potency [11]: inconclusive: 52.9 µM [inhibitor, partial curve, poor fit]
Potency [8]: active: 18.3 µM and active: 10.7 µM

CC(C)CCCCCCCOC(=O)c1ccc(C(=O)OCCCCCCCC(C)C)c(C(=O)OCCCCCCCC(C)C)c1
Potency [1]: inconclusive: 53.6 µM [cytotoxic, single point]
Potency [2]: inconclusive: 53.6 µM [cytotoxic, single point]
Potency [10]: active: 19 µM
Potency [4]: inactive
Potency [7]: inconclusive: 44.1 µM [inhibitor, partial curve]
Potency [11]: inconclusive: 62.3 µM [inhibitor, partial curve, poor fit]
Potency [9]: inconclusive: 49.5 µM [inhibitor, partial curve]

Clc1ccc(Cn2c(CN3CCCC3)nc3ccccc32)cc1
Potency [1]: inconclusive: 33.5 µM [cytotoxic, single point]
Potency [2]: inconclusive: 33.5 µM [cytotoxic, single point]
Potency [13]: inconclusive: 14.1 µM [activator, single point]

O=C[O][Al]([O]C=O)[O]C=O
Potency [1]: inactive
Potency [2]: inactive
